# From the supplement of paper PMC11417369
# ± gives the standard deviation of the averaged measurements. This is one part of the list.
# Tested on: PfAP2-G AP2 domain (GST-tagged)
# Assay: gcPBM binding intensity (ln(normalized median fluorescence intensity)); higher = stronger DNA binding
# Summary of the method: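 GST-tagged P. falciparum DNA-binding domains produced in E. coli were incubated for 1 h on an Agilent 4 × 180k array of primer-extended double-stranded 36-bp intergenic genomic probes with negative controls. Binding intensity is the highest Masliner-normalised natural-log median intensity across replicate spots of either probe orientation, with bound protein detected by Alexa488 anti-GST antibody at 488 nm.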
row,Sequence,gcPBM binding intensity (ln)
1,AAAAATAAAGTAAAAGCATGCTAGTATATGGAAAAT [TGCATGCA_site486],9.96
2,TATAATAATATTTATTGTACAATTAGGTTAATTCAT [XGTACX_site1986],10.9 ± 0.38
3,CATATACGCAAACACACACACATATATATATATATA [CACACA_site501],10.3 ± 0.35
4,AGGTATATATATTTATGTACTTAAAATGAGAAAATA [XGTACX_site8337],11.4 ± 0.81
5,TCTTAAATTTCTTTATGTACATAATTAATATATTTA [XGTACX_site4456],11.2 ± 0.59
6,TATATATTATGACCACCACACACCTATACGCATAAC [CACACA_site2447],11.4 ± 0.81
7,TATCGTTATATAATATGTACATATAAAATTTAAATT [XGTACX_site1887],11.3 ± 0.72
8,AAAATGTATATATAAACATGCACACGTGGTTGTATA [TGCATGCA_site847],10.29 ± 0.049
9,ATATATATATATATTGTACACACATTTATGCATATA [CACACA_site9055],11.3 ± 0.57
10,TGTGGGAATAACCACACACACACACCCATATATATA [CACACA_site5876],10.1 ± 0.18
11,AAATGCAAATGATGATGTACATACAAAAATTAAATT [XGTACX_site5323],11.2 ± 0.69
12,ATGATAGTATGTATGAGTACGAAAAAAAAAAATTAA [XGTACX_site32],11 ± 0.62
13,TTTTCTTAAAAAATCAAACACACATATATATATACA [CACACA_site2297],9.92 ± 0.16
14,ATATATATATATATATGTACATATCACTTTAAATAT [XGTACX_site3859],11.1 ± 0.57
15,TATAATATGAACAGTACACACAAAATAAATTCGTAT [CACACA_site3586],11.1 ± 0.67
16,ATTCAAAATAATAGAATTGTTAAAGTTGTAAATTGA [CACACA_negctrl_site727],9.72 ± 0.26
17,ACGTATCAAAAAATTTGTACATATATATATATATAT [XGTACX_site1024],10.8 ± 0.47
18,GAACAGAAAAAGAATAGTACATATATATATATATAT [XGTACX_site3700],10.9 ± 0.73
19,CTCAAACAATATTATATAATAAAGTACATATATATT [CACACA_negctrl_site446],11.3 ± 0.86
20,AAAAATAAATATACATGTACTTAAAATAATCGAATA [XGTACX_site8432],11.2 ± 1
21,TATATTTTTATATTTTGTACATATAGTAAATATAAA [XGTACX_site4768],10.8 ± 0.51
22,AAAAATATATAAAGAAAAAGAATATAATATAAAATA [GTGCAC_negctrl_site208],9.64 ± 0.17

row,Sequence,gcPBM binding intensity (ln)
1,ATTGTAGAATTTAATAGTACTCACGAATAAAATAAA [XGTACX_site6280],11.2 ± 0.59
2,TATTAAAATATGTCAGTTCTTAAAAAGTTGATGAGT [GTGCAC_negctrl_site77],10 ± 0.14
3,TATGATTCATAATAGTGTACGTAAAAATTGACTAGA [XGTACX_site5376],11.7 ± 1
4,AAAAAAAAAGTATTATGTACATAAAAATAAAAAAAT [XGTACX_site4166],11.2 ± 0.69
5,GTTTATGTTAAACCATGTACTTAATATTTTATTCTT [XGTACX_site3761],11.2 ± 0.69
6,CACATACATATATATACACACAAATATATATACACA [CACACA_site8164],10.1 ± 0.2
7,GATATAAAATATTGGTGTACTTTTTTTTTTTTTTTT [XGTACX_site7174],11.5 ± 0.85
8,GTATGTGTGTCAAGTCGTACTTACCTTTAAATTTTT [XGTACX_site2507],11.2 ± 0.56
9,TTACCGTAAAAATTTTGTACATAAAATAATATATAA [XGTACX_site532],11 ± 0.61
10,TTTTTTTGTTTTGTTTTTTTTTTTTTTTTTTTTTTG [CACACA_negctrl_site570],9.64 ± 0.014
11,ACCATGAAAATATTATGTACATATGTATTATATATA [XGTACX_site408],11.3 ± 0.8
12,GAGTGAGCTAATAAAAGTACGTAATAAACAAACGCA [XGTACX_site131],11.2 ± 0.91
13,ATAGCTGTATTTAATACACACAAAACTTTCATTCCA [CACACA_site5868],10.02 ± 0.028
14,TTTTTATATTTTTGCACACATTCTTTACTCTTCAAA [CACACA_site2210],10.2 ± 0.13
15,TATATATATGGACACACACACATATAAATAAATAAA [CACACA_site4406],10.9 ± 0.6
16,TTAAAAAAAAAACACACACACATACACATATATATA [CACACA_site3299],9.985 ± 0.092
17,TTTTTTTTTTTTTTTTTTTCTATTTTACTGTTTCGT [CACACA_negctrl_site850],9.54 ± 0.34
18,ATAATTAATAAATAATGTACATATATATTATATTTT [XGTACX_site8546],11.1 ± 0.6
19,TGTGAAGTACCGAATGTGCACTGTGTGTGTTCTTTT [GTGCAC_site9613],10.9 ± 0.42
20,TACTATAAGATATATACACACAAGAAATACAAAACG [CACACA_site6764],10.2 ± 0.2
21,ATGATTATTTTAAAAAGTACTAATTATTATTTTTTT [XGTACX_site7242],10.9 ± 0.69
22,GAATATGAATATTTGCGTACTTATATAACTGTTCTA [XGTACX_site883],11.3 ± 0.54

row,Sequence,gcPBM binding intensity (ln)
1,AAAAAAAATAATAATACACACAATATGATATGTACA [CACACA_site850],10.4 ± 0.17
2,ATACACATTCGAAATAACAAAAAAATACATACACAT [GTGCAC_negctrl_site628],10.2 ± 0.13
3,TTAATACATATATATATATTATATATATATATATAT [TGCATGCA_negctrl_site177],9.69 ± 0.39
4,ATATATGTATATTTTTGTACGCATAAATATATTTTT [XGTACX_site827],11.3 ± 0.83
5,TTTTTATACAATTAGACACACACAAAAAGTATATAT [CACACA_site8272],10.3 ± 0.18
6,TGCTTAATTTACGTGGGTACATACACCTCATATATT [XGTACX_site3093],11.3 ± 0.82
7,CCCTTTTATTAAAATTCACACACATAAATTTTTATA [CACACA_site8611],10.1 ± 0.19
8,ATTATTTTAATTTTAATTTTTTTTTTTTTTTGTTTT [CACACA_negctrl_site1063],9.39 ± 0.085
9,TATTTTTCCATAAAAATTTATATAGAAACAAATAAT [GTGCAC_negctrl_site103],10.1 ± 0.33
10,TATATGCATATACATACACACATAACACATACGTTT [CACACA_site3832],10.04 ± 0.021
11,TTTCTAATTCTTAGTGGTACACAGTTCTGCTGATAT [XGTACX_site2391],11.4 ± 0.96
12,ATATGTCACTTGTATACACACATATAGATTTCAATC [CACACA_site7519],10.2 ± 0.2
13,AAGCTATATATAGGCAGTACTTTGTAAGTGTAGATA [XGTACX_site8365],10.6 ± 0.34
14,AAAAAAAAAAAAAAAACACACAGAACAATATATAAA [CACACA_site4698],10.3 ± 0.18
15,TATTTGTTGTGAGTCACACATATATATATATATATA [CACACA_site4240],10.4 ± 0.57
16,ATATTGTAAGTAAACACACACACATATATATGTATA [CACACA_site8124],9.955 ± 0.035
17,AAAATATCTTATATATGTACATATTTATATTTATAT [XGTACX_site6027],11.1 ± 0.64
18,TTTTCATAAAATCATTGTACATTTATCGTATATTAA [XGTACX_site3855],10.8 ± 0.58
19,TATAAACACCCATATAAACACACATATAAACCAACA [CACACA_site8790],10.2 ± 0.23
20,ATACGCACACATATATGTACATATTGTATATATATA [XGTACX_site3962],11.2 ± 0.71
21,GACAAAAAATTAAAATAAAATAATAATATAATAAAA [GTGCAC_negctrl_site234],9.49 ± 0.11
22,ATATAATAGTTATATTGTACATAAATTATACACCTT [XGTACX_site628],11 ± 0.5

row,Sequence,gcPBM binding intensity (ln)
1,AAGGTAGAAATATGTTGTACGGTTTGGAGGAAGCAA [XGTACX_site1105],10.7 ± 0.5
2,GCATCGATCAAACATACACACATGGTTAATAAAAAT [CACACA_site8651],10.3 ± 0.29
3,TGTTTTATTTTATTAGTGCATTTTTATTTATAATAG [GTGCAC_site9453],9.97 ± 0.13
4,ACATATATATTCATATGTACATATACATACATACAT [XGTACX_site4563],11.3 ± 0.64
5,ACAATTTACACTTAAACACACAAAAAAAAATTATAT [CACACA_site2065],10.06 ± 0.057
6,TTATAAATGTAACGATGTACTTTTAAAAGTTTCCTT [XGTACX_site109],11.2 ± 0.72
7,AATATATGTATATATTTTTTTTTTTCCCTTACAAAT [GTGCAC_negctrl_site428],9.725 ± 0.049
8,GTTAAAATTGGGGACGCATGTTCCTTTCCTTTTTTT [TGCATGCA_site1002],10.8 ± 0.57
9,TATATTAAACAATATACACACATTAATGTATACATA [CACACA_site2755],10.02 ± 0.028
10,GGAATGGTACATGATACACACACGCACATATATATA [CACACA_site5825],10.8 ± 0.57
11,GATTTAATAGATACGAGTACAGAAATTGTATACATA [XGTACX_site7563],11.6 ± 0.7
12,ATATATATATATATATATATATATATATATAAGTGG [XGTACX_negctrl_site90],10.3 ± 0.56
13,TATTAATTCATTTTTTTTTTTTTTTTTTTTTTTTTT [CACACA_negctrl_site1215],11 ± 0.69
14,TATTTTTTTTTTCACTGTACATACAACAACAAATAT [XGTACX_site8835],11.3 ± 0.83
15,CCCTTAATTTAAAACACACAAACAAATAAGTTAGTT [CACACA_site3793],9.91 ± 0.085
16,AATATATTTATTATAACACACACATATATATATTAT [CACACA_site8264],9.9 ± 0.11
17,TACATATTTTTCTTTTCACACATGGAAAAAAAAGGT [CACACA_site5146],10.1 ± 0.23
18,TTATATGTTTTGTGTACACAATTTATTAAATTAATA [CACACA_site5645],11.7 ± 0.88
19,ATAGGAAAAAGTATTGGTACACATACATATACGTTA [XGTACX_site5819],11.2 ± 0.72
20,ATAAAATACCCTGATCTATTACATATTATATTCTGC [GTGCAC_negctrl_site311],9.89 ± 0.014
21,TATATATTTTTTTCATGTACATATAAATTAATTAAA [XGTACX_site8680],11.4 ± 0.73
22,ACACAAAAAATTAAGTGTACTCATCAAGAAAAAAAA [XGTACX_site3456],11.5 ± 0.82
